Assay results taken from the supplement of paper PMC11417369.
The list shows a part of the results.

Tested on: PfAP2-HC AP2 domain (GST-tagged)
Assay: gcPBM binding intensity (ln(normalized median fluorescence intensity)); higher = stronger DNA binding
In short: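 Each value is the highest Masliner-normalised natural-log median intensity across replicate spots of either orientation of a probe. The probes were primer-extended double-stranded 36-bp intergenic genomic sequences on an Agilent 4 × 180k array, alongside negative controls, exposed for 1 h to GST-tagged P. falciparum DNA-binding domains expressed in E. coli. Bound protein was picked up with Alexa488 anti-GST antibody and scanned at 488 nm.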

Sequence | gcPBM binding intensity (ln)
AAAAAAAAAAAAAAAGTGCATTAATAAATTTTAATA | 9.33
ACATCTATGTATAATACACACACTAATATATAATTG [CACACA_site5134] | 9.98
ACATATTATTCTTCTTGTACACATAAATTTTATAAA [XGTACX_site299] | 9.63
ATGACGTAGTGGTGTACACACATGGTACCTTTATTC [CACACA_site1547] | 10.1
AAAAAAATATTCAAAGCATGCCTATTTACACATATT [TGCATGCA_site806] | 9.77
TCTTATAATTTACCTACACACAGGAAATATATAAAT [CACACA_site294] | 9.65
TCAGAAATATTACAAAGTACATGCAACGAAAATTTC [XGTACX_site5061] | 9.62
ACACAATGTAGTGTATAAATACAATAAAAGGTTGTA [TGCATGCA_negctrl_site251] | 10.3
TGATATTTAAATTTTGCACACGCATATGAAATTAGG [CACACA_site1034] | 9.61
ATATTTATAATTTTTTGTACACATTTTTTAAAGATA [XGTACX_site1784] | 9.62
TATAAGAGAAGAAGAAAAAAAAGGTTTCTATAGAAA [XGTACX_negctrl_site421] | 9.68
CATATAGTAATATATACACACACTTGTCTTGTAAAA [CACACA_site8238] | 10
AAGAAGCATAAATGTACACACATATTTATATATTAA [CACACA_site1332] | 9.85
ATAGTATACAGACACACACACACACGGATATAAATA [CACACA_site6914] | 10.6
ATATATATATATATATGTACTAAATATTCATCCTTA [XGTACX_site6039] | 9.75
AAGTTTAAGAAATAATTCATATTTACTTCCATCCTC [GTGCAC_negctrl_site494] | 9.57
TTTTTTTTTTTTTTTGCACACACATTGAATTATTAT [CACACA_site198] | 9.96
TACATATAAATATATAAATATAAATAAATAAATAAA [XGTACX_negctrl_site180] | 9.7
AAATGGAAAAGGTGTACACAAAAAAAAGGGAAAAGC [CACACA_site5331] | 10.1
CTTTATATATAGTGTACACATTAAACAAATCTCAAT [CACACA_site5845] | 9.58
TTACCAAAAACCTCAAGTACAAAAAATCCCTAATAT [XGTACX_site2313] | 9.65
TATATATGTATATATGGTACAGAATATTCTACATTA [XGTACX_site5077] | 9.65
CATCCACATATATGTACACACATATATATATATATA [CACACA_site2964] | 9.95

Sequence | gcPBM binding intensity (ln)
TACCACATCGGTAAATGTACTTATAAAAAAAAAAAA [XGTACX_site3364] | 9.13
CAATCATTTTATTGTTGTACAGTAATTATGAATTCA [XGTACX_site7508] | 9.37
ATTTATGATATGTAAACATGCATAAAAATTTCAAAA [TGCATGCA_site858] | 9.6
AATGGGTTAGCACATACACACCAATATATTATATAT [CACACA_site9011] | 9.87
TATAAACTTAATTTGAGTACTTAATAATAATTTTGT [XGTACX_site3730] | 9.49
TATATATATATATTATGTACGTATCAGTTTGTATGT [XGTACX_site695] | 9.92
CACGACATTAACAATACATGCAGAAAAACAAAAAAT [TGCATGCA_site689] | 9.7
TTATAAATTAGAGGTACACACAAAAAAAAAAAGAAA [CACACA_site6740] | 9.94
ATTTTTAATATTATTACACACACTAAAAAAAAAAAA [CACACA_site1067] | 9.79
TTGGTACCTATAGATACACACATATATACATATATA [CACACA_site3402] | 9.69
AAAAAAAAAACACGCGCACACACACCCACCCACCCA [CACACA_site8689] | 10.9
ACTAATAAAGGTGTAATACACACTATAAAAAGGAAT [CACACA_site1124] | 10
TATAAAATTTTTAAAAGTACATATTTTACATAATAC [XGTACX_site2193] | 9.16
TTTTTATCAACAAATAATACCATAACTCATATTTAT [CACACA_negctrl_site740] | 9.41
ATTATTCCATATTATTGTACTTTAATTTTTTAAACC [XGTACX_site2960] | 9.65
TTTTTTCTTTATTATGGTACGTATAAAAAAATTATA [XGTACX_site3433] | 9.49
GAGAGGTATCAAAAATGTACACATATATATATGTAT [XGTACX_site5611] | 9.7
ATATATAATATATATTGTACAGGTATGTCTATAAAT [XGTACX_site2243] | 9.75
ATATATTTTTTTTTTTCACACATTAGGATTCATATA [CACACA_site5758] | 9.64
TAATAATATATAAAAAGTACATAACAAGATATGAAA [XGTACX_site4921] | 9.84
ATCATATGTATGGTGGTGCATTATGCATGAATTTTA [GTGCAC_site9798] | 9.73
AGAAAAAAATAATCATCACACACGGAGAATGTCCAA [CACACA_site2314] | 10.1
GAAAATAACTAAAATTGTACAAAGAAACATATATTT [XGTACX_site6484] | 9.79

Sequence | gcPBM binding intensity (ln)
TATATATATCTGTATACACACATACAAATATGTAAA [CACACA_site5950] | 9.73
GATATTCATTATATATGTACATATATGTAATATATA [XGTACX_site2210] | 9.67
TATTAAAGCACCCATGCACACACACTAAGGAAAAGA [CACACA_site7961] | 10.8
TGTTGATTTATCCTGTGTACGGATATATATCTTTCA [XGTACX_site7826] | 9.66
TAAAGAATATTATAAACACACACTTTATAAAGAATT [CACACA_site114] | 9.91
GTAATTATACATATTACACACTCTCTTGATCTTTTT [CACACA_site7756] | 9.87
TATATAAAGAAACACACACACACCTTATAATTATTA [CACACA_site4062] | 11.2
TATATAAACCCACCTACACACACAACGTAAATGCAT [CACACA_site8702] | 10.1
ATTATTATATTCAAATGTACTTAATAAACATTTTAA [XGTACX_site3023] | 9.38
TTTATCTAAATATGTGTGCACTCGTTAATTTTTTTT | 10.1
TGAATAAAATATTATACACACATATGTATATAACAT [CACACA_site974] | 9.75
TTAATTTTTTTTTAAACACACATTTTTTTATTTAAG [CACACA_site2738] | 9.67
TATTAATTTTTTTTTTTTTTTTTTTTTTTTTTTTTT [CACACA_negctrl_site1329] | 9.26
GTTATAAATAATAAATAAATAATCAAATGAAGAATG [CACACA_negctrl_site653] | 9.84
TCCTTATTTCATATTTTTAAATAATACAAAAAAAAA [CACACA_negctrl_site773] | 9.06
ATATATATTTATAATCGTACGTACCTAACAATACAA [XGTACX_site4510] | 9.62
AAATAAAAAAAAGCCTGTACATGTTCATAAATTTTT [XGTACX_site7925] | 9.65
GAATATTAAATATTATCACACACATAATTATTTCCA [CACACA_site8730] | 10.2
TTCTATTTATATGTGGGTACTAATTTTTTTTCTTTT [XGTACX_site7104] | 9.98
CTTAAATTAATTTGGGTGCATATATTTGTACACATT [GTGCAC_site9948] | 9.69
ATAAATATACCAATCGGTACACATTTATACAAACAA [XGTACX_site7484] | 9.68
AATAAATACACATACACACACGACGCTAGTATATGT [CACACA_site6627] | 10.6
AGAATAAATATGTGGTGTTATAGTATTAATGTTAAT [TGCATGCA_negctrl_site62] | 9.77

Sequence | gcPBM binding intensity (ln)
GCTATAAATATAATCACACATAAATATATAATATAT [CACACA_site5144] | 9.63
AGGAGGATAGTTCACAGTACCCAGGAAATCTGCGGA [XGTACX_site4928] | 9.51
TTTATTTTCCAAAGGGTGCACATAGTTAAAACGATA [GTGCAC_site9855] | 9.52
TATGCAATAAAATATACACACAATATACTTATATAT [CACACA_site7691] | 9.84
ATCTATATTCATAATACACACATTCTGTAGCATTAT [CACACA_site7058] | 9.88
TGATTAATTTTTAAATGTACTTAAAAATATACTTAT [XGTACX_site2872] | 9.47
TATATCATATAAAACCGTACATACATACTTAATTGT [XGTACX_site6822] | 9.69
AACAGGTCATAATTTACACACTATATATTTTATTAT [CACACA_site670] | 9.89
AGAAAACATATGTTTTGTACTTAAGAAAAAAAAAAA [XGTACX_site4231] | 9.59
TAACATATGGGACACACATGCAACTGTTATATGTCC [TGCATGCA_site959] | 10.2
TTTTATATGTTATATACACACATATAAATAAATATA [CACACA_site7418] | 9.5
AAAAATAAATAAATATGTACATATATACATATATAT [XGTACX_site5892] | 9.77
AAAAAAAAATTAAAATGTACACATAAAAAAAAAAAA [XGTACX_site794] | 9.81
TATTTATACCTATACACACACACACGGATATTTATA [CACACA_site7123] | 10.8
GATAAAATCACTGGTGCATGTAGATATATAATATTA [TGCATGCA_site589] | 9.65
ATATGCTTATTGTAAAGTACATTATTATTTTTCCTA [XGTACX_site5479] | 9.63
AATTAACAAAAACACACACACACACCGACAAAAAAA [CACACA_site4444] | 10.9
TACAAATATATATGCACACACATATACATACAGATA [CACACA_site5238] | 10
TGATGAAAATCTACATGAATGTTTTTATATCTATAT [GTGCAC_negctrl_site139] | 9.66
ATGAATAAATAAGACACACACGAAAATAAGTAAAAA [CACACA_site4216] | 10.8
